Columns and labels:
Assay in all cases: FP
[1] = target: SARS-CoV NSP3 2019-2038
[2] = target: SARS-CoV-2 E 1-16
[3] = target: SARS-CoV E 1-16
[4] = target: SARS-CoV-2 NSP3 2019-2038

B1: FERM domain of Ezrin (domain or fragment)
chain: not shown
[1]
  Kd: 56 µM
[2]
  Kd: 57.9 µM
[3]
  Kd: 57.9 µM
[4]
  Kd: 19.8 µM
